Out of some 48,000 compounds screened, about 120 (0.25%) were called active. Roughly 4% stayed inconclusive and do not appear here. Calls come from the whole dose curve; as a rule, active = well fitted activation curve with a large enough effect; inconclusive = small, poorly fitted or top-dose-only effect, or another doubt; inactive = no such curve, though single readings can be large or run the other way. Some of the results follow.
Assay: Primary qHTS for Identification of Small Molecule Activators of Huntingtin-Antisense Promoter Activity; note: nearly all actives have a fitted effect of over 55% in size
Conditions: HEK293 HTT-AS promoter firefly luciferase reporter, 24 h; series mostly up to 57.5 µM; activity change, positive = activation: at the top concentration
In short: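 Firefly luciferase readout (Dual-Glo, 10 min RT) after 24 h, 37 °C compound exposure (final up to 57.5 uM) of HEK293 reporter cells cultured 24 h beforehand; PTC124 at 50 uM final as control inhibitor; activity scaled vehicle 0%, zero RLU -100%.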

Activity change, positive = activation, inactive:
COc1ccc(NC(=O)C(NS(=O)(=O)c2cccc3nsnc23)C(C)C)cc1 (centres undefined) 6.41% [at 11.5 µM, percent change from vehicle, -100% = no light]
CCOC(=O)c1c(NC(=O)c2cc(-c3ccc(Br)cc3)on2)sc(C(C)=O)c1C 11.5% [at 11.5 µM, percent change from vehicle, -100% = no light]
NC[C@H]1O[C@H](O[C@@H]2[C@@H](O)[C@@H](O[C@H]3O[C@H](CO)[C@@H](O)[C@H](N)[C@@H]3O)[C@H](N)C[C@@H]2N)[C@H](O)[C@@H](O)[C@H]1O -29.8%
O=C(c1ccc(F)cc1)c1cn(Cc2ccccc2)c2cc3c(cc2c1=O)OCO3 -3.61%
COc1cc(OC)cc(C(=O)Nc2ccc(-c3nc4ccccc4s3)cc2C)c1 -10.4%
Cc1cc(C)n(-c2nc(C)c(C)c(=O)n2CC(=O)Nc2ccc([N+](=O)[O-])cc2)n1 -10.9%
Nc1nc2c(ncn2COC(CO)CO)c(=O)[nH]1
CCOC(=O)c1ccc(NC(=O)Cn2cc(C(=O)C3CC3)c3ccccc32)cc1 -28.1%
C[n+]1c2cc(N)ccc2cc2ccc(N)cc21 (tested in a mixture with another compound) -39.2%
COc1ccccc1CNC(=O)CCc1c(C)c2cc3c(C)c(C)oc3cc2oc1=O 2.76%
COc1ccc(CCNC(=O)c2ccc3c(c2)N(Cc2ccc(F)cc2)C(=O)c2ccccc2S3(=O)=O)cc1OC -3.96%
Cc1ccccc1Nc1c(-c2c(F)cccc2Cl)nc2ccc(Br)cn12 -2.6%
Cc1csc(-c2nnc(Nc3ccc(Oc4ncccc4-c4ccnc(N)n4)cc3)c3ccccc23)c1 -27.1%
Cc1c(C(=O)Nc2cccc(C(F)(F)F)c2)sc2nc[nH]c(=O)c12 -10.5%
Cc1ccc(-n2ncc3c(NCCCN4CCOCC4)ncnc32)cc1C -47.6%
CCOC(=O)c1ccc(NC(=O)CCCn2c(=O)c3cccn3c3ccccc32)cc1 -5.46%
COCc1nnc(NC(=O)c2cc(OC)c(OC)c(OC)c2)s1 12.2%
Cc1ccc(NC(=O)C2CCCN(S(=O)(=O)c3c(C)n[nH]c3C)C2)c(C)c1 (centres undefined) -13.4%
COc1ccc(OC)c(/C=C/c2nc3ccccc3c(=O)n2-c2ccc(F)c(Cl)c2)c1 -6.37%
COc1ccc(C(=O)/C=C/c2cn(CC(O)CN3CCc4ccccc43)c3ccccc23)cc1OC (centres undefined) -41.6%
CCC(C(=O)Nc1cc(C)ccc1C)n1c(=O)c(C(F)(F)F)nc2ccccc21 (centres undefined) -9.12%
COc1cccc(CNS(=O)(=O)c2cnc(N)nc2)c1 -11.9%
O=C(COc1ccc(F)cc1)Nc1nnc(S(=O)(=O)N2CCCC2)s1 -5.39%
COc1ccc(NC(=O)c2nnn(Cc3nc(-c4cc(OC)c(OC)c(OC)c4)oc3C)c2C)cc1Cl -14.3%
COc1ccccc1CNC(=O)c1ccc2[nH]c(C)c(C)c2c1 1.47%
COc1ccc(OC)c(NS(=O)(=O)c2ccc(-n3cccn3)cc2)c1 -33.4%
CCCCNC(=O)C(CC)Sc1nc2ccccc2c(=O)n1Cc1ccco1 (centres undefined) -10.5%
COCCCNC(=O)Cn1c(=O)n(-c2ccc(C)c(C)c2)c(=O)c2c3c(sc21)CCCCC3 -10.8%
COCCNC(=O)c1sc2ncccc2c1-n1c(C)ccc1C 14.4%
CCC(C)n1c(=O)c2sccc2n2c(CCCC(=O)NCc3ccccc3Cl)nnc12 (centres undefined) -6.36%
Cc1cccc(N(C)S(=O)(=O)c2nnc(NC(=O)c3cccs3)s2)c1 -19.8%
Cc1ccc(C(=O)c2sc(Nc3ccccc3)c(S(=O)(=O)c3ccccc3)c2N)c(C)c1 -13.9%
CCOC(=O)c1cccc(NC(=O)Cn2c(=O)c3cccn3c3ccccc32)c1 -16.1%
Cc1cc(C)n2nc(CNC(=O)c3c(F)cccc3F)nc2n1 -13.4%
NCCCCCC(=O)O
COCCn1c(CNC(=O)c2cccc(C)c2)nc2cccnc21 -6.04%
COCCNC(=O)C1CCN(Cc2cc3ccccc3n2Cc2ccc(C)cc2)CC1 -8.91%
COc1ccccc1NC(=O)C1=C(C)Nc2nc(SCc3ccccc3)nn2C1c1cccc(O)c1 (centres undefined) -32.3%
c1ccc2c(CCNc3ccc(Nc4ccncc4)cc3)c[nH]c2c1 -26.8%
Cc1cc(Cl)ccc1OCC(=O)N(Cc1sccc1C)C1CCS(=O)(=O)C1 (centres undefined) -14.7%
CCC(=O)Nc1ccc2nc(SCCOc3ccc(C)cc3OC)sc2c1 -11.6%
CC(=O)c1ccc(NC(=O)CSc2nc(-c3ccc(C)cc3)nc3c2c(=O)n(C)c(=O)n3C)cc1 -1.16%
CCn1c(=O)cc(OCC(=O)N2CCN(c3ccc(C)cc3)C(C)C2)c2ccccc21 (centres undefined) -44.6%
CCCOc1cccc(C(=O)N(Cc2sccc2C)C2CCS(=O)(=O)C2)c1 (centres undefined) -19.4%
COc1ccc(CNC(=O)c2cnc(N(C)C)nc2)cc1 -7.72%
Cc1ccc2c(c1)C(=O)[C@]1(O)CCN(c3ccccc3)C1=N2 -0.8%
CC(C)OCCCNC(=O)CN1C(=O)c2cccnc2Sc2ccccc21 -6.62%
O=C(Cn1cc(SCc2c(F)cccc2Cl)c2ccccc21)N1CCCCC1 28.8%
Cn1c(=O)n(Cc2ccccc2)c(=O)c2c1nc1n2CCN1c1ccccc1 -20.2%
CCN(CC)CCNC(=O)CN1N=C(c2ccc(OC)cc2)CCC1=O -4.91%
COc1c(C)cnc(Cn2cnc3c(Cl)nc(N)nc32)c1C -56.7%
COc1ccc2c(Oc3ccc(NC(=O)c4c(C)n(CC(C)(C)O)n(-c5ccccc5)c4=O)nc3)ccnc2c1 -15.2%
Cc1ccc(-c2cn3cccnc3n2)cc1NC(=O)Nc1ccc(F)cc1 6.47%
CC(C)(C)OC(=O)N1CCC(c2c(C(=O)N3CCN(c4ccccn4)CC3)cnn2-c2ccc(F)cc2)CC1 -14.8%
COc1ccc2c(c1)c(=O)c(S(=O)(=O)c1ccc(F)cc1)cn2Cc1ccccc1Cl -1.16%
COc1cccc2c(C)cc3nnc(SCC(=O)Nc4ccc(C)cc4)n3c12 -9.05%
COCCNC(=O)CN1C(=O)c2cccnc2Sc2ccccc21 -10.5%
O=C(Cn1ncc2c1-c1ccccc1OC2)N1CCN(c2ccccc2)CC1 -16.4%
O=C(c1ccc2c(c1)OCO2)c1cn(Cc2ccc(Cl)cc2)c2ccc(F)cc2c1=O -30.2%

Source: PubChem BioAssay AID1508624 (National Center for Advancing Translational Sciences (NCATS), 2021)
